Measured values taken from PubChem BioAssay AID588591 (National Center for Advancing Translational Sciences (NCATS), 2011).
Where “and” joins values, the source holds several entries; their conditions need not be identical. Equal entries are not always repeated. Among all 390,000 compounds or so, about 4,700 (1.2%) were called active. This list was built around the results that the source calls inconclusive (neither active nor inactive); the mix of calls is not that of the screen. Calls follow the shape of the dose curve; as a rule, active = well fitted inhibition curve with a large enough effect; inconclusive = small, poorly fitted or top-dose-only effect, or another doubt; inactive = no such curve, though single readings can be large or run the other way. Potencies beside an inconclusive call are fits to weak or partial responses and may not hold up.

Target: DNA polymerase eta (Homo sapiens) (UniProt Q9Y253)
Assay: qHTS for Inhibitors of Polymerase Eta
Conditions: recombinant Pol eta, fluorescent DNA replication assay; series mostly up to 114 µM
Summary of the method: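 Pol eta (10 nM) was preincubated with compounds for 15 min at room temperature, after which fluorescent replication substrate (50 nM final) was added to start the reaction. Fluorescence was read kinetically at 0 and 10 min.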
Potency is read from the fitted curve at half-maximal effect; tags tell the direction and shape of the fitted curve.

Sequence of UniProt Q9Y253 (Q9Y253 whole entry, looked up): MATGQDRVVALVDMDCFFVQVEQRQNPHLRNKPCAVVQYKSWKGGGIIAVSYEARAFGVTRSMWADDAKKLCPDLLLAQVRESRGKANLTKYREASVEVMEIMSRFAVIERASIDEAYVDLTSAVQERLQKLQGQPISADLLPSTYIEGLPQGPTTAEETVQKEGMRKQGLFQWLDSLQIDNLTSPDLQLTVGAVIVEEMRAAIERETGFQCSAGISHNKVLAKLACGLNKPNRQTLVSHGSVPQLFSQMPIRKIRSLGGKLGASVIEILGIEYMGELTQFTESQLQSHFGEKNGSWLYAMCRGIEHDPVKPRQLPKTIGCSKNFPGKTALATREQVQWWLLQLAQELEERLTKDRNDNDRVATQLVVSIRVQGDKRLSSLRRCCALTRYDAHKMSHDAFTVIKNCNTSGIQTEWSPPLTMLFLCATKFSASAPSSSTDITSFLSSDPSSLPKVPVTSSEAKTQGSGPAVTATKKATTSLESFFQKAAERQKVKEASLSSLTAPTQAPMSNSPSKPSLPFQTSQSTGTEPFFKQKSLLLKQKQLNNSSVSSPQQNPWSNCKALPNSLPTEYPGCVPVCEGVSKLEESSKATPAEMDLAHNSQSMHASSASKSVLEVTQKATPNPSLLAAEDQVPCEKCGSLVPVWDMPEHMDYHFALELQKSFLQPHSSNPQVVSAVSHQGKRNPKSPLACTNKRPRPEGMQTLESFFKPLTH

Compound | Potency
CCOC(=O)c1c(C)[nH]c(C)c1S(=O)(=O)N1CCC(C(=O)N2CCN(c3cccc(C)c3C)CC2)CC1 | inactive
Cc1ccc(-n2nc3c(=O)n(CC(=O)NCc4ccc(C)o4)nc(C)c3c2C)cc1 | inconclusive: 100 µM [inhibitor, partial curve, poor fit]
C=CCn1c(=O)[nH]c2cc(C(=O)N3CCN(c4ccc(C(C)=O)cc4)CC3)ccc2c1=O | inconclusive: 79.4 µM [inhibitor, partial curve]
O=C(Nc1ccc(F)cc1)c1ccc(Cn2nc(N3CCN(c4ccccc4)CC3)ccc2=O)o1 | inconclusive: 89.1 µM [inhibitor, single point]
Cc1ccc(S(=O)(=O)c2c(N)n(C)c3nc4ccccc4nc23)cc1 | inconclusive: 39.8 µM [inhibitor, partial curve, poor fit]
COc1ccc(CCNC(=O)CSc2ccc3ccccc3c2)cc1OC | inconclusive: 35.5 µM [inhibitor, partial curve, poor fit]
CC(C)[C@H](NC(=O)c1ccc(F)cc1)C(=O)N(C)Cc1cccs1 | inconclusive: 100 µM [inhibitor, single point]
CCC1CCc2c(sc(NC(=O)C3CC=CCC3C(=O)O)c2C#N)C1 (centres undefined) | inconclusive: 17.8 µM [inhibitor, partial curve, poor fit]
CN(C)CCNc1ncnc2oc(-c3ccccc3)c(-c3ccccc3)c12 | inactive
CCc1ccc2[nH]c(=O)c(CN(CC3CCCO3)C(=S)NCc3ccco3)cc2c1 (centres undefined) | inconclusive: 79.4 µM [inhibitor, partial curve, poor fit]
COc1cc(/C=C2\C(=O)N(c3ccccc3)N=C2C)ccc1Oc1ccc([N+](=O)[O-])cc1[N+](=O)[O-] | inconclusive: 15.8 µM [inhibitor, full curve, poor fit]
CC(C)Nc1nc(SCC(=O)Nc2ccccc2)nc(N2CCOCC2)n1 | inconclusive: 22.4 µM [inhibitor, single point]
CC(=O)c1ccc(NC(=O)c2ncn(-c3ccccc3)n2)cc1 | inactive
Cc1cccn2c(=O)c3cc(C#N)c(=O)n(CCCN4CCOCC4)c3nc12 | inconclusive: 15.8 µM [inhibitor, full curve, poor fit]
CCCCN(CC)CCCNC(=O)c1cc2c(-c3ccc(OC)c(OC)c3)nn(C)c2s1 | inconclusive: 56.2 µM [inhibitor, partial curve] and inconclusive: 50.1 µM [inhibitor, partial curve]
CCOc1ccc(-c2c(C(=O)N/N=C/c3cccnc3)nnn2-c2nonc2N)cc1 | inconclusive: 56.2 µM [inhibitor, partial curve, poor fit]
CC(C)CN(CC(C)C)C(=O)CN1c2cccc3cccc(c23)S1(=O)=O | inactive
CCOC(=O)/C=C1/SCC(=O)N1CC(=O)c1ccc[nH]1 | inconclusive: 56.2 µM [inhibitor, partial curve, poor fit]
COc1c(F)c(F)c(C(=O)Nc2ccc(NC(=O)c3ccco3)cc2)c(F)c1F | inconclusive: 31.6 µM [inhibitor, partial curve, poor fit]
COc1ccc(S(=O)(=O)N2CCC(C(=O)Nc3ccccc3N3CCCCC3)CC2)cc1OC | inconclusive: 79.4 µM [inhibitor, partial curve, poor fit]

Compound | Potency
O=c1[nH]c(Nc2ccccc2)cc2ccccc12 | inconclusive: 11.2 µM [inhibitor, full curve, poor fit]
Cc1cc(/C=N/Nc2ccc([N+](=O)[O-])cn2)c(C)n1-c1ccccc1 | inactive
CN(CC(=O)Nc1cccc(F)c1)C(=O)CCc1nc2sc3c(c2c(=O)[nH]1)CCCC3 | inconclusive: 14.1 µM [inhibitor, full curve, poor fit]
Nc1nc(SCc2ccc(Cl)cc2Cl)nc2nc3c(cc12)CCCC3 | inconclusive: 6.31 µM [inhibitor, partial curve]
COc1cc2sc3cc(NCCCN4CCOCC4)ccc3c(=O)c2cc1OC | inconclusive: 79.4 µM [inhibitor, partial curve]
CCCN(CCC)CCNC(=O)c1cc2c(-c3ccccc3F)nn(C)c2s1 | inactive
Cc1ccc(C)c(NC(=O)CCCn2nc(C)c3sc4ccccc4c3c2=O)c1 | inactive
O=C1/C(=C/c2ccc(O)c(O)c2)SC(=S)N1Nc1ccccc1 | active: 7.94 µM
FC(F)(F)c1cc(CCN2C(=S)NC[C@@H]2Cc2ccccc2)cc(C(F)(F)F)c1 | inconclusive: 39.8 µM [inhibitor, partial curve, poor fit]
CCCSc1nc(C)c(-c2csc(C(C#N)=C3CCCC3)n2)cc1C#N | active: 44.7 µM
Cc1ccc(OC(=O)c2snnc2C)cc1C | inactive
CC(C)Cn1c(N)c(C(=O)COC(=O)CC23CC4CC(CC(C4)C2)C3)c(=O)n(C)c1=O | inconclusive: 22.4 µM [inhibitor, partial curve, poor fit]
Cc1ccc(C)c(OCc2nnc(NC(=O)c3ccco3)s2)c1 | inconclusive: 25.1 µM [inhibitor, single point]
O=C(N/N=C/C=C\c1ccco1)c1cccnc1 | inconclusive: 25.1 µM [inhibitor, full curve]
O=C(COc1ccc(Cl)cc1)Nc1c(-c2cccs2)nc2ccccn12 | inconclusive: 10 µM [inhibitor, partial curve]
COc1cc2c(=O)n(Cc3ccccc3)c(=O)n(CC(=O)Nc3cc(C(F)(F)F)ccc3Cl)c2cc1OC | inactive
CCN(CC)S(=O)(=O)c1ccc(N2CCCC2)c(NC(=O)C2CSC3(C)CCC(=O)N23)c1 (centres undefined) | inconclusive: 22.4 µM [inhibitor, partial curve, poor fit]
NC(=O)CC1Nc2cccc3cccc(c23)NC1=O (centres undefined) | inconclusive: 28.2 µM [inhibitor, partial curve, poor fit]
O=C(NC(=S)NC1C2CC3CC(C2)CC1C3)C12CC3CC(CC(C3)C1)C2 (centres undefined) | inconclusive: 79.4 µM [inhibitor, partial curve, poor fit]
